Experimental findings from publication PMC5836133 are described below.

Some of the results follow. At the low end of the ranking the order means little.

In this assay the test system is T1, GST-NbGlk1(82-244).
T1 sequence: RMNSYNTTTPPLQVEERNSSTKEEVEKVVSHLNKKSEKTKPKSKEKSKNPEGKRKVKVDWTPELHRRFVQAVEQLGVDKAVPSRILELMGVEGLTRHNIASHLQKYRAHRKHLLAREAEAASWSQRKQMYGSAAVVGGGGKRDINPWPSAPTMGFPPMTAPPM
Nature of the assay: protein-binding microarray.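 Note: rank-based score ranging −0.5 to +0.5 with E above 0.45 taken as significant binding.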 As to conditions: NbGlk1 is a Golden2-like transcription factor of Nicotiana benthamiana; high values mean tight binding; most listed sequences are background and not binding sites; double strand, one strand shown.
In turn, ACCGTTAT showed a binding signal of 0.041 E-score.
Turning to AACATGAG, the binding signal stood at 0.106 E-score.
As for CAACGGTG, the binding signal is -0.205 E-score.
With ACTCGGAC, the binding signal is -0.292 E-score.
For AGATCGAG, the binding signal is 0.103 E-score.
Consider ATGACACC, for which the binding signal is -0.149 E-score.
For the sequence ATGGTACG, the binding signal was 0.066 E-score.
For ACGGTATC, the binding signal came to 0.297 E-score.
Sequence AATTAATT had a binding signal of 0.142 E-score.
Next, ACCTACGG: -0.0715 E-score.
ATTTTTAC showed a binding signal of 0.313 E-score.
Next, ACGACACG: -0.216 E-score; AACCTAGT: -0.0506 E-score; AGACCGCG: -0.21 E-score.
Next, ACTTACCC: -0.159 E-score; AACGCCAT: 0.0511 E-score.
Sequence AATGCGTG registered a binding signal of -0.102 E-score.
CAATAGGA gave a binding signal of 0.0155 E-score.
CACCCCTA: the binding signal is -0.163 E-score.
The sequence AACTTAAG registered a binding signal of -0.0538 E-score.
In turn, AAGCGGCA displayed a binding signal of -0.196 E-score.
AGTCTTAT had a binding signal of -0.00956 E-score.
As for ATATTACC, the binding signal was determined as 0.137 E-score.
With ACCTTTCG, the binding signal was -0.136 E-score.
The value for ATCACCAC was 0.113 E-score; that for AGGCGGCC was -0.198 E-score; that for AGCGCGTC was -0.159 E-score.
The value for ATTACAGC was 0.177 E-score.
Next, AGACCACA: -0.0589 E-score; ACAATCGG: 0.123 E-score.
In the case of ACATACCC, the binding signal was -0.166 E-score.
Turning to ATTACATC, the binding signal is 0.229 E-score.
The value for ATTTAGCC was -0.0907 E-score; that for AAGCACAC was -0.129 E-score.
Next, AGAGGACG: -0.225 E-score; ATTCAAAT: 0.21 E-score; ATGATCGA: 0.062 E-score.
Turning to AAAGTGGG, the binding signal was -0.138 E-score.
Next, CACAACCG: -0.093 E-score; CAAAAGCA: -0.0146 E-score.
AGTTATAT displayed a binding signal of 0.116 E-score.
ATGGGCAC displayed a binding signal of -0.167 E-score.
Regarding ATGGATGA, the binding signal was -0.0309 E-score.
In the case of ATAGTCTA, the binding signal was 0.0222 E-score.
On to AACGGGGT, for which the binding signal was -0.196 E-score.
On to ATGCCTCG, for which the binding signal is -0.126 E-score.
For the sequence ACAATGAA, the binding signal was -0.0372 E-score.
The value for ACAATTCG was 0.0797 E-score.
As to AGCGTGTG, the binding signal is -0.0212 E-score.
As for AATAAACT, the binding signal came to 0.0164 E-score.
For ACGCGCCC, the binding signal was -0.177 E-score.
With ACTTTCCT, the binding signal is -0.189 E-score.
As for ATCGGATG, the binding signal was 0.0808 E-score.
Sequence ATACTGTC registered a binding signal of 0.138 E-score.
For ATCCCACC, the binding signal came to 0.155 E-score.
The sequence CACGACTC displayed a binding signal of -0.0472 E-score.
ACCGCGAA gave a binding signal of -0.0226 E-score.
As to ATTCATAC, the binding signal amounted to 0.084 E-score.
The sequence AGAGGTCC yielded a binding signal of -0.299 E-score.
AAGTGGCG registered a binding signal of -0.183 E-score.
Next, AAAAAGCT: -0.0684 E-score; CAATCAGA: 0.206 E-score; ACGTAATG: 0.00594 E-score.
Take AGGACGGC: the binding signal was -0.288 E-score.
In the case of CAGATAGA, the binding signal was found to be 0.0454 E-score.
In the case of AAACGGAG, the binding signal is -0.0752 E-score.
AGCCCGAG gave a binding signal of -0.142 E-score.
AGTACTAC came in with a binding signal of -0.0238 E-score.
ACTGGCAG had a binding signal of -0.236 E-score.
Consider ATACTATA, for which the binding signal stood at 0.133 E-score.
AAAAGGAG displayed a binding signal of -0.0555 E-score.
Next, AGCAAGAC: -0.0412 E-score; AACCTTGG: -0.21 E-score.
Next, ATCGTTAC: 0.0361 E-score; ATTGTTGC: 0.136 E-score; ATATGCCC: 0.129 E-score.
In turn, ATGATCAC came in with a binding signal of 0.00851 E-score.
Turning to ACACTGTC, the binding signal was -0.0464 E-score.
ACCAGAAT yielded a binding signal of 0.149 E-score.
In turn, AAGTTGCG came in with a binding signal of -0.0262 E-score.
In the case of AAAAGGGT, the binding signal is -0.177 E-score.
Next, AGCTGTCA: -0.125 E-score; ACATAACT: -0.00256 E-score.
Next, CAGCAATA: 0.184 E-score; ACGGAGGA: -0.128 E-score.
AAACTAAG: the binding signal came out at 0.055 E-score.
Sequence AGCATGGG displayed a binding signal of -0.205 E-score.
With AATGGGAT, the binding signal was 0.174 E-score.
Turning to CAGAGGAG, the binding signal was -0.147 E-score.
The value for ATCCTTCG was 0.106 E-score.
CAAATATA came in with a binding signal of 0.245 E-score.
The value for ACAGATGA was 0.0626 E-score; that for AGTAGCAA was 0.066 E-score.
Next, AAGGCTAG: -0.142 E-score; CAATCCCC: 0.194 E-score; ACCACCAC: -0.16 E-score.
AACATATT returned a binding signal of 0.172 E-score.
In the case of AAGCCCAC, the binding signal was -0.198 E-score.
For the sequence ACCTACGT, the binding signal was -0.148 E-score.
Take ATGCGGAA: the binding signal was 0.077 E-score.
Next, AGCTATGA: 0.0193 E-score; ACAGTATA: 0.203 E-score; ACCTGAAG: -0.11 E-score.
Consider ACTTATAC, for which the binding signal is 0.141 E-score.
Sequence ATGTATTG returned a binding signal of 0.00833 E-score.
In turn, AACGCGTT displayed a binding signal of 0.00919 E-score.
Consider ACGTTTAT, for which the binding signal was -0.0287 E-score.
AACCGTGG: the binding signal was -0.137 E-score.
In turn, AATCCCAG showed a binding signal of 0.342 E-score.
AACCGACC: the binding signal is -0.1 E-score.
Next, CAACAGAC: -0.0742 E-score; AACTAGAT: 0.208 E-score; ACGGATCA: 0.102 E-score.
AATAGGTA showed a binding signal of 0.0364 E-score.
The value for CAACATTC was -0.0757 E-score; that for ATTTCTAG was 0.261 E-score; that for ACGCGATC was 0.437 E-score.
AATTGTCT returned a binding signal of 0.0922 E-score.
Sequence AGCCACGG gave a binding signal of -0.294 E-score.
For AATCGGAA, the binding signal came to 0.296 E-score.
Take ATGTCAGC: the binding signal is -0.0616 E-score.
In turn, ACGACGAA registered a binding signal of -0.0302 E-score.
The value for CAGAGTCG was -0.141 E-score; that for ATCAATCC was 0.0601 E-score; that for ATCTACCC was 0.15 E-score.
Next, AAGGGAAA: 0.132 E-score; AGACCTGA: -0.111 E-score.
The value for CAAAACGA was 0.0285 E-score; that for AACAGACC was -0.0314 E-score; that for ACAACTGG was -0.162 E-score.
As to AGACCATC, the binding signal is -0.191 E-score.
The value for CACTATTC was -0.0347 E-score.
Consider ACATTGAA, for which the binding signal was 0.00539 E-score.
Sequence ATTAGTAA registered a binding signal of 0.0358 E-score.
Sequence ACAGAGAT had a binding signal of 0.267 E-score.
On to AATGGGGA, for which the binding signal was found to be 0.0144 E-score.
Sequence ACCTAAAG gave a binding signal of -0.0978 E-score.
AACTTGGA registered a binding signal of -0.0519 E-score.
As to AGGTTCTC, the binding signal was -0.247 E-score.
AAGTGAGA: the binding signal turned out to be 0.0589 E-score.
For the sequence AAGAAAAA, the binding signal stood at 0.164 E-score.
As for ATGCGTAC, the binding signal came out at 0.000502 E-score.
Next, AGCGGAAT: 0.162 E-score.
ACACCACT came in with a binding signal of -0.103 E-score.
AAATTTCC showed a binding signal of 0.305 E-score.
For the sequence AGAAGTCT, the binding signal was determined as 0.0662 E-score.
The value for AGACATGC was -0.0692 E-score; that for CAGAACCC was -0.178 E-score.
Regarding CAGATTCC, the binding signal came to 0.473 E-score.
The value for AACATTCC was 0.0127 E-score; that for AAAGATTA was 0.318 E-score.
As to AGACTTCC, the binding signal is -0.272 E-score.
For CACCGTAC, the binding signal was -0.0425 E-score.
Sequence ACGCTGCA returned a binding signal of 0.00061 E-score.
ACGAGAGG displayed a binding signal of -0.00422 E-score.
For AACCTTAA, the binding signal is -0.0854 E-score.
As to AGTCTGGA, the binding signal is -0.121 E-score.
On to ATCAACGG, for which the binding signal amounted to 0.132 E-score.
The sequence CACCCCGA gave a binding signal of 0.0631 E-score.
Turning to AATAAGGA, the binding signal came to 0.0725 E-score.
As for ACACGCCC, the binding signal was -0.154 E-score.
In the case of AAGGTGAC, the binding signal is -0.108 E-score.
With ATCTCCCG, the binding signal was 0.184 E-score.
In the case of AGCTCGGG, the binding signal was -0.121 E-score.
The sequence ACCTTTTC yielded a binding signal of 0.0641 E-score.
The sequence ATGATGAG registered a binding signal of -0.0301 E-score.
In turn, ACTTAGGC returned a binding signal of -0.0531 E-score.
The value for ACCTGTTC was -0.232 E-score; that for ACGGACGA was -0.0738 E-score.
The sequence CAGAGGCC showed a binding signal of -0.234 E-score.
In the case of ATCGCAGC, the binding signal was 0.031 E-score.
The value for ACGCACGA was -0.00453 E-score.
